Assay [1] addresses CLCN4 (human (endogenous in HEK293)) (UniProt P51793). The assay is described as follows: native gel or EMSA; BN-MS: 0.5% DDM extract of purified early endosomes (HEK293) on a 4-16% NativePAGE gel, 48 slices, DIA mass spectrometry; co-fractionation profiles. Background: A gel shift assay detects complexes by their altered migration in electrophoresis.
Assay [2] addresses T1, CLCN5 (human (endogenous in HEK293)) (UniProt P51795).
T1 sequence: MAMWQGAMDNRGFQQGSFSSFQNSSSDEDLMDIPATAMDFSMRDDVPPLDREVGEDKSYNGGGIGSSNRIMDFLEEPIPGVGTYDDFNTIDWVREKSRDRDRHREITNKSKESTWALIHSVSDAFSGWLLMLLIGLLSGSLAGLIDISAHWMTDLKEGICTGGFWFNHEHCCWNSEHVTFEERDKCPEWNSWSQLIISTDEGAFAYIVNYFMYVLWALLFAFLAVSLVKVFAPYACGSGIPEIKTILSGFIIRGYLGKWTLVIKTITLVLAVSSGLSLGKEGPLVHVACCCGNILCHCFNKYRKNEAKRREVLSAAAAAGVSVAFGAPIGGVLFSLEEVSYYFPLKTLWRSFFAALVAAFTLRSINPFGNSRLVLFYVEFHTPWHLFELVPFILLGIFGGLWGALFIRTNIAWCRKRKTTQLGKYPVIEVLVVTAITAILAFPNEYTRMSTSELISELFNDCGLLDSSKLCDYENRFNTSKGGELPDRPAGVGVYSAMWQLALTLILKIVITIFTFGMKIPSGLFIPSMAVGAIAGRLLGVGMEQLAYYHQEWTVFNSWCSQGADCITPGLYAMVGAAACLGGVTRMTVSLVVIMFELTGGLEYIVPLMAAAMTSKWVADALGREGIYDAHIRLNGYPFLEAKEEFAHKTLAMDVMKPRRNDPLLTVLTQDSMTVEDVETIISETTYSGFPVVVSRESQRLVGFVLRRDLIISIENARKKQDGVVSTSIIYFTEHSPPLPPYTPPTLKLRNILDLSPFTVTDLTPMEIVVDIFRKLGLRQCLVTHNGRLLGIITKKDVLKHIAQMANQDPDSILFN
Described as above.

The chains behind the UniProt entries cited, without tags or fusion partners. Residues count along the entry.
UniProt P51793: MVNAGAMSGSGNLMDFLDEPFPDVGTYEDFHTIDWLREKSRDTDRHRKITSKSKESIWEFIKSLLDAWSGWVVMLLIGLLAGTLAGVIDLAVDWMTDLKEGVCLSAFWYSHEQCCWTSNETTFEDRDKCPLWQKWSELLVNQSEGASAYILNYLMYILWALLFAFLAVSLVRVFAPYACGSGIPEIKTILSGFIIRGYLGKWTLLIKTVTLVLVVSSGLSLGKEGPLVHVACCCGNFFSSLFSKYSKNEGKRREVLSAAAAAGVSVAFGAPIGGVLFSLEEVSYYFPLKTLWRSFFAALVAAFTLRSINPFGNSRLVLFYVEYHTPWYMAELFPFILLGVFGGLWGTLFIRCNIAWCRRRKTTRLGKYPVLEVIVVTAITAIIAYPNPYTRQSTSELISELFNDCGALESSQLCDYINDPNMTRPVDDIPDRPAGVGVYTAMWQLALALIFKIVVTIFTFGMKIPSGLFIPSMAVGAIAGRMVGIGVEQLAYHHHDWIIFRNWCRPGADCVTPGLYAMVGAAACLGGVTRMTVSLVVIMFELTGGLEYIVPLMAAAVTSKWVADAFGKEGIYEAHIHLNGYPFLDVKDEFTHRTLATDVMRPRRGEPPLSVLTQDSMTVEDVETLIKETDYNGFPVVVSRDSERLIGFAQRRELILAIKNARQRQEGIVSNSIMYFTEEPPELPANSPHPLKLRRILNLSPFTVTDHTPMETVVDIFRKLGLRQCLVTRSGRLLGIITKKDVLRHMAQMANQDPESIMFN
UniProt O43747: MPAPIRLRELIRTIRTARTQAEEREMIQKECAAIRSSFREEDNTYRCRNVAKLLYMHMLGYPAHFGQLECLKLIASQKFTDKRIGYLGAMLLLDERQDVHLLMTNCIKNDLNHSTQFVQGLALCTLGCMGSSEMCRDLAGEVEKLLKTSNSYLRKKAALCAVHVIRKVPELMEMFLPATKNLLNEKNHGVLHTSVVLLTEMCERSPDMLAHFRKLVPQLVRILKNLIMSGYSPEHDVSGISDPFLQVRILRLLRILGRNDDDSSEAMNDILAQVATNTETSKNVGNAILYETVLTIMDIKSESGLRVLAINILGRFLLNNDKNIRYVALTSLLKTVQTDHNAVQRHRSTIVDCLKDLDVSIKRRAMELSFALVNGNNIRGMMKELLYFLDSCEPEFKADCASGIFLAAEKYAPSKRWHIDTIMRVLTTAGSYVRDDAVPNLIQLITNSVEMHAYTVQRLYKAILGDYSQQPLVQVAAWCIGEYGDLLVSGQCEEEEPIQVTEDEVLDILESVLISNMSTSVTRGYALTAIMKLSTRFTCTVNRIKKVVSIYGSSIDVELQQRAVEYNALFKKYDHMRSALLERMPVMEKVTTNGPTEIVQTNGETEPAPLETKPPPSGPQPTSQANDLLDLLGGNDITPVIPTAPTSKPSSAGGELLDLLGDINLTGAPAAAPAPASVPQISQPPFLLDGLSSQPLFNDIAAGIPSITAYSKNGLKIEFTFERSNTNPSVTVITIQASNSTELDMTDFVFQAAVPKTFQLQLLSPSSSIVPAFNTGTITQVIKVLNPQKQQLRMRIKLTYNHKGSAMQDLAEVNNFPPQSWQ
UniProt Q9P0T7, residues 21-183: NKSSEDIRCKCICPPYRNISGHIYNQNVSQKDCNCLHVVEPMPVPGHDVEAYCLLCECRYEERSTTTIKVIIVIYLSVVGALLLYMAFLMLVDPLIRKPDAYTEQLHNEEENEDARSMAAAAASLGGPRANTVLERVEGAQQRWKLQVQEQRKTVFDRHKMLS
UniProt P62491: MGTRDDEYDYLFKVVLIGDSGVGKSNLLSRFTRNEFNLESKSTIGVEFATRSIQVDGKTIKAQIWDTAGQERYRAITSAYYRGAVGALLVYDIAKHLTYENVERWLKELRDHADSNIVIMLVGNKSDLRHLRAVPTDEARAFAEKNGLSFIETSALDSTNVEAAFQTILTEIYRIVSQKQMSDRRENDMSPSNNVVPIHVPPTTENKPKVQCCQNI
UniProt P61006: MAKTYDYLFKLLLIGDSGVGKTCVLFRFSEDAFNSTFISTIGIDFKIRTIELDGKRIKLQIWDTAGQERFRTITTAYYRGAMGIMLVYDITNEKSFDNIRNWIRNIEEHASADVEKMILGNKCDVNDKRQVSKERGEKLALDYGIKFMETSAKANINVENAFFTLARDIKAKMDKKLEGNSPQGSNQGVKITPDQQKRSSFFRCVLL
UniProt P61966: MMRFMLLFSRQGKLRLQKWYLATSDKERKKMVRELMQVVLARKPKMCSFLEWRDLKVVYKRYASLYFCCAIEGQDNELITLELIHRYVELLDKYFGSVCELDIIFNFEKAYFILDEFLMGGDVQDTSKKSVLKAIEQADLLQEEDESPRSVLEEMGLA
UniProt Q96T51: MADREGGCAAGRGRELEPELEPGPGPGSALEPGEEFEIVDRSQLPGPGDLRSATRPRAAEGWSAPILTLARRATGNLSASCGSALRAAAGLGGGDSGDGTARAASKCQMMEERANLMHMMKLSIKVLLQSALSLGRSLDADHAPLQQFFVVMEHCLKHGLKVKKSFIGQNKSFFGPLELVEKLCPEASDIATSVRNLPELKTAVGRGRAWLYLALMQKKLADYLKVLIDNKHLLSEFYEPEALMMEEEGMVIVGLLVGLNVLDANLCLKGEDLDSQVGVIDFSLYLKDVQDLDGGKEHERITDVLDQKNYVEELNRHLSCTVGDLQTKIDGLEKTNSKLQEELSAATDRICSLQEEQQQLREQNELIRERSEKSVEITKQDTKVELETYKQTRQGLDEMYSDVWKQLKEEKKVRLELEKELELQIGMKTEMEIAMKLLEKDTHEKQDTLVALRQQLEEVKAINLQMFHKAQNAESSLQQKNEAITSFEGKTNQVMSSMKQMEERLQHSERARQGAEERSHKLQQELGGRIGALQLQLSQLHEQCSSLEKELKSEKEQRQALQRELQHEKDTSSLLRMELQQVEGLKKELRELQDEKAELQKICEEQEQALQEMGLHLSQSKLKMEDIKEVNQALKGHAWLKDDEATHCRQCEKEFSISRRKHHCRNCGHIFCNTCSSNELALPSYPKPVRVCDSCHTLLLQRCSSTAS
UniProt Q9NVJ2: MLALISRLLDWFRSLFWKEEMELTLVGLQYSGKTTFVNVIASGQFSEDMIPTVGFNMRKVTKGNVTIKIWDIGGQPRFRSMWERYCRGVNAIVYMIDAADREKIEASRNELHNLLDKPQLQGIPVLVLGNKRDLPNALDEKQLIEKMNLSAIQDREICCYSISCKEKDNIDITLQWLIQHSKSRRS
UniProt Q15811: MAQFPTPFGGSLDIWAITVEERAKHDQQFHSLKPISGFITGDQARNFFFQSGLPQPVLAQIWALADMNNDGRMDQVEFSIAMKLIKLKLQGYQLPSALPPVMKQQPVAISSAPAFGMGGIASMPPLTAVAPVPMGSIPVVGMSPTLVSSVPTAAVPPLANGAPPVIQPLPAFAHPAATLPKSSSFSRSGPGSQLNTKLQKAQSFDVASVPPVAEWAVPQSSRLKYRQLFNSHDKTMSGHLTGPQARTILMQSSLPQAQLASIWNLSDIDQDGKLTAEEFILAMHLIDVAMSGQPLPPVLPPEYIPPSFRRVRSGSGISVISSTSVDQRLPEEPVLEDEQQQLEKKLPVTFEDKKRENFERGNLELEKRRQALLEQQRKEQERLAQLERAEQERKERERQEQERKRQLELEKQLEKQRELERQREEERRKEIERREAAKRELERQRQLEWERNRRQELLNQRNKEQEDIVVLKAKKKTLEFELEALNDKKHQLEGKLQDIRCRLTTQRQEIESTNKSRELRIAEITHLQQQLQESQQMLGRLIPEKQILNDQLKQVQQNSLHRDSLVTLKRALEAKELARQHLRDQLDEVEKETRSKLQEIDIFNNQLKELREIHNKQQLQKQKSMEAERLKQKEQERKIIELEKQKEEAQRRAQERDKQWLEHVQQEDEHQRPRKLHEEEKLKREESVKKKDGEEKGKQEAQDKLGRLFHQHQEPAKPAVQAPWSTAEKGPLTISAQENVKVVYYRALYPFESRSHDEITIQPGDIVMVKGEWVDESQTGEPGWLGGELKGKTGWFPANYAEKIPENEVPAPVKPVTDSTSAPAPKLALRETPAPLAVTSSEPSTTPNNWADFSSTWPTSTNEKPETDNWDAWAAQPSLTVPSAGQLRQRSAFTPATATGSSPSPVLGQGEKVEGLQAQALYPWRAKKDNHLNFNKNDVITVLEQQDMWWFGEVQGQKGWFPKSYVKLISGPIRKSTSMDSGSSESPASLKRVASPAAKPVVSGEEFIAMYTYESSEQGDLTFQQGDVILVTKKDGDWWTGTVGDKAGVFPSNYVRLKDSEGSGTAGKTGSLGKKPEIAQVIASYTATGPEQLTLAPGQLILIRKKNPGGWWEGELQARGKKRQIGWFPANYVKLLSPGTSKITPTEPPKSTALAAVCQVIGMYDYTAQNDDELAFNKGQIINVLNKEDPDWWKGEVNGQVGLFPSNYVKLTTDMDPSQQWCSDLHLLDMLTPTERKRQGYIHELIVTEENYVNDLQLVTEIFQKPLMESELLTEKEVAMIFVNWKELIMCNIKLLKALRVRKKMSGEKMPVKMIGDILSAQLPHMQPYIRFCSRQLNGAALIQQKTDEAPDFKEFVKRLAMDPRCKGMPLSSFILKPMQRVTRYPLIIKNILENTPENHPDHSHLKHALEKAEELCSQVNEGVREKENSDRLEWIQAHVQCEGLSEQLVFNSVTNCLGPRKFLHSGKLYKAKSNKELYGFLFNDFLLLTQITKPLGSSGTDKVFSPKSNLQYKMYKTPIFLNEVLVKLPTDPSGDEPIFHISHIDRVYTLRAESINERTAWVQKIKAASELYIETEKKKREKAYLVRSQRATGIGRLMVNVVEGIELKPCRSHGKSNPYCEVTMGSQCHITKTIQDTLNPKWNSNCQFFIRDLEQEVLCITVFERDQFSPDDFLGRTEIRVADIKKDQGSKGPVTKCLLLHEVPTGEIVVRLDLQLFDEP

The target in another assay is T2, Flag–CLCN5 (human) (UniProt P51795).
T2 sequence: T1 sequence
The assay is described as follows: co-IP; HEK293 cells transfected with tagged proteins; 0.5% DDM, 25 mM HEPES pH 7.4, 150 mM NaCl; anti-HA or anti-Flag magnetic beads; immunoblot. A general note: A western blot detects proteins with antibodies after separation by electrophoresis.

For assay [3], the target named is T3, SH3BP5 (human (endogenous in HEK293)) (UniProt O60239).
T3 sequence: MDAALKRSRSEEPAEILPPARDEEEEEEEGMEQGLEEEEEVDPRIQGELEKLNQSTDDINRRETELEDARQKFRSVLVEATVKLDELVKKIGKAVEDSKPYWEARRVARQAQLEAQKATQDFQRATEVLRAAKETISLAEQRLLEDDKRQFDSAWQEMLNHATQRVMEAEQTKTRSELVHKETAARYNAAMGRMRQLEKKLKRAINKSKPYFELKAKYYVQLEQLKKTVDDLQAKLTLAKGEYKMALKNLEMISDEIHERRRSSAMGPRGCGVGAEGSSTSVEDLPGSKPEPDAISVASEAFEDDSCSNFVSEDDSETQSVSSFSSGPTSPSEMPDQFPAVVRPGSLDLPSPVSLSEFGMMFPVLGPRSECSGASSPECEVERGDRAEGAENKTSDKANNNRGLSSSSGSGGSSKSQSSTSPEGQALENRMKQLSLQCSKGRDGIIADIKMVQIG
Kind of assay: cross-linking; XL-MS: intact early endosomes (Endo-IP, HEK293 cells expressing Flag-EEA1, eluted with 3xFlag peptide, no detergent) cross-linked with 1 mM DSSO in KPBS at room temperature for 40 min; XlinkX, 5% FDR.

Assay [4] addresses T4, SYTL4 (human (endogenous in HEK293)) (UniProt Q96C24).
T4 sequence: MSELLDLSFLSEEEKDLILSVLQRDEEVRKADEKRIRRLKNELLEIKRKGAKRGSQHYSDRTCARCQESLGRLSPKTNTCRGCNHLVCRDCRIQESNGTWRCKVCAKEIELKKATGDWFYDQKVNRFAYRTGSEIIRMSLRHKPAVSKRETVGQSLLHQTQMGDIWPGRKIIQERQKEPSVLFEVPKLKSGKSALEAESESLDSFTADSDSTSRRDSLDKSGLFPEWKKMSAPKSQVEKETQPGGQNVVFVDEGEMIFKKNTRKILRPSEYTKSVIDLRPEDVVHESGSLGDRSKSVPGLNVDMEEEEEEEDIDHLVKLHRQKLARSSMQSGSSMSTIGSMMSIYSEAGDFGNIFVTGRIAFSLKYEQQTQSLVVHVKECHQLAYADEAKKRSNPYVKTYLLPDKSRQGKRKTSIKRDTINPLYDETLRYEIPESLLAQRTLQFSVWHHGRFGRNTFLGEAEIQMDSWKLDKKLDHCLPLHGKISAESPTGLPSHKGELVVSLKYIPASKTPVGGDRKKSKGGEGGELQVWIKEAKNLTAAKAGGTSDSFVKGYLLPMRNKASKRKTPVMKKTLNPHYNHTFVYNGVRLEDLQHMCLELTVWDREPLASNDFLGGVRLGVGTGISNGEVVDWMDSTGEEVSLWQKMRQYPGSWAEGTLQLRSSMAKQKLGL
The assay is described as above.

Assay [5] has as its target AP1G1 (human (endogenous in HEK293)) (UniProt O43747). The description is as above.
Assay [6] deals with T5, RUFY2 (human (endogenous in HEK293)) (UniProt Q8WXA3).
T5 sequence: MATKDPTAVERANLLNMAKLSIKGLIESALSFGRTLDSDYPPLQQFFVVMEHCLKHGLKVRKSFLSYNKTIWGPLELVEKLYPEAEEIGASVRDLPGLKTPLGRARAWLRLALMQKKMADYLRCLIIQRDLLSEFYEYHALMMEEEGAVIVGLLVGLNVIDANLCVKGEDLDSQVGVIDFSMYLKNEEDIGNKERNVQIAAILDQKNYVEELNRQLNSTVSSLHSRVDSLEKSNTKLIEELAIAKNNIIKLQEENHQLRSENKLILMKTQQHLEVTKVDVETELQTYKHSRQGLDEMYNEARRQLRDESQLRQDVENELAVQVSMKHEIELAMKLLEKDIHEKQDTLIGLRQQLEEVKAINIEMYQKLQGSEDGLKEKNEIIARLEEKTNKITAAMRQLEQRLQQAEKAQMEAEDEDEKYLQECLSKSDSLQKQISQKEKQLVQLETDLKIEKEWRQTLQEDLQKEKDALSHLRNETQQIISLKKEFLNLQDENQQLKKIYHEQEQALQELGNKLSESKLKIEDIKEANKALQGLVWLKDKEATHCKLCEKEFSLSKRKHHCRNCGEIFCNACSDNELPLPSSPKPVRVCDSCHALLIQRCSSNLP
The assay is described as above.

Assay [7] concerns the target T6, EPS15L (human (endogenous in HEK293)) (UniProt Q9UBC2).
T6 sequence: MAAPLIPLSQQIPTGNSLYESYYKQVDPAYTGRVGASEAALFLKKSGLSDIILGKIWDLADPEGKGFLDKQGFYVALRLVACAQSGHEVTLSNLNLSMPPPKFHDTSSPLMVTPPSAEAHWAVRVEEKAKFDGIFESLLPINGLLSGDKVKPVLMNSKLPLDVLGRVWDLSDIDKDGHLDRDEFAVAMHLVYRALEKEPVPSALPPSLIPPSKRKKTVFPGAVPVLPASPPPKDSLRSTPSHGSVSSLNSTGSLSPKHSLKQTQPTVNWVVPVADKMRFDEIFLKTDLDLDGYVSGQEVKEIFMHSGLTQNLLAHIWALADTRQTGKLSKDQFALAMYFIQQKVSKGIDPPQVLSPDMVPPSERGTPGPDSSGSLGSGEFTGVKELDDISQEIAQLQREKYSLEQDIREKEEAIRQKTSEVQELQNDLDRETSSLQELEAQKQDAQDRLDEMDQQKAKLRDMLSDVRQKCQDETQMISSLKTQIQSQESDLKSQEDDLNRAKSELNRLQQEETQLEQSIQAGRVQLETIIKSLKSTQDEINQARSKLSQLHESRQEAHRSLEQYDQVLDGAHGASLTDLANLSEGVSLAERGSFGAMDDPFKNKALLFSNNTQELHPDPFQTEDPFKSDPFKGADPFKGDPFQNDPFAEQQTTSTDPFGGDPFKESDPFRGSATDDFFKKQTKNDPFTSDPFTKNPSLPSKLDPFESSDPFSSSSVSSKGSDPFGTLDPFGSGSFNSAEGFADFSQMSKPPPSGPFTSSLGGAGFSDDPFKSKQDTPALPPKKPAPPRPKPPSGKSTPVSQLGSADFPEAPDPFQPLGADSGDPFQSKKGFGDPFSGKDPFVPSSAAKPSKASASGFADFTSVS
Described as above.

Results are given in words; binding and its absence hold for the method and conditions named. For part of these data: In cells and extracts the contact can be indirect. Some binding calls cover weakened binding; strength is not graded here. For part of these data: Where a sequence is shown, tags or fusion partners need not be part of it.

For the substance TMEM9 (from UniProt Q9P0T7 21-183), the binding entry in assay [1] and in assay [2] was “binds” in each case.

Regarding “HA-tagged TMEM9 (from UniProt Q9P0T7 21-183)”, in the assay with Flag–CLCN5 (human), the binding result is “binds”.

As for RAB11A (from UniProt P62491 1-216), the binding entry in assay [3] was “binds”.

On to RAB8A (from UniProt P61006 1-207), for which the binding result in assay [4] is reported as “binds”.

Consider AP1S1 (from UniProt P61966 1-158), for which, in assay [5], the binding entry was “binds”.

Regarding RUFY1 (from UniProt Q96T51 1-708), in assay [6], the binding result is “binds”.

As for ARL8B (from UniProt Q9NVJ2 1-186), the binding result in assay [6] is listed as “binds”.

ITSN1 (from UniProt Q15811 1-1721): the binding entry in assay [7] was “binds”.

These data come from paper PMC12222028.
